Results: article PMC4336329 (PLoS ONE, 2015)
The whole screen tested about 310,000 compounds, of which about 14,000 (4.5%) showed an effect of 50% or more. Effects have a minus sign here. The list shows a part of the results.

The compounds below were run against human ether-à-go-go-related gene (hERG) potassium channel (human, UniProt Q12809) (assay: primary screen, population patch clamp on CHO cells stably expressing hERG).
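Further: peak tail current of the secondary pulse compared with the same well before compound.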

Chain of human ether-à-go-go-related gene (hERG) potassium channel (Q12809 whole entry, looked up): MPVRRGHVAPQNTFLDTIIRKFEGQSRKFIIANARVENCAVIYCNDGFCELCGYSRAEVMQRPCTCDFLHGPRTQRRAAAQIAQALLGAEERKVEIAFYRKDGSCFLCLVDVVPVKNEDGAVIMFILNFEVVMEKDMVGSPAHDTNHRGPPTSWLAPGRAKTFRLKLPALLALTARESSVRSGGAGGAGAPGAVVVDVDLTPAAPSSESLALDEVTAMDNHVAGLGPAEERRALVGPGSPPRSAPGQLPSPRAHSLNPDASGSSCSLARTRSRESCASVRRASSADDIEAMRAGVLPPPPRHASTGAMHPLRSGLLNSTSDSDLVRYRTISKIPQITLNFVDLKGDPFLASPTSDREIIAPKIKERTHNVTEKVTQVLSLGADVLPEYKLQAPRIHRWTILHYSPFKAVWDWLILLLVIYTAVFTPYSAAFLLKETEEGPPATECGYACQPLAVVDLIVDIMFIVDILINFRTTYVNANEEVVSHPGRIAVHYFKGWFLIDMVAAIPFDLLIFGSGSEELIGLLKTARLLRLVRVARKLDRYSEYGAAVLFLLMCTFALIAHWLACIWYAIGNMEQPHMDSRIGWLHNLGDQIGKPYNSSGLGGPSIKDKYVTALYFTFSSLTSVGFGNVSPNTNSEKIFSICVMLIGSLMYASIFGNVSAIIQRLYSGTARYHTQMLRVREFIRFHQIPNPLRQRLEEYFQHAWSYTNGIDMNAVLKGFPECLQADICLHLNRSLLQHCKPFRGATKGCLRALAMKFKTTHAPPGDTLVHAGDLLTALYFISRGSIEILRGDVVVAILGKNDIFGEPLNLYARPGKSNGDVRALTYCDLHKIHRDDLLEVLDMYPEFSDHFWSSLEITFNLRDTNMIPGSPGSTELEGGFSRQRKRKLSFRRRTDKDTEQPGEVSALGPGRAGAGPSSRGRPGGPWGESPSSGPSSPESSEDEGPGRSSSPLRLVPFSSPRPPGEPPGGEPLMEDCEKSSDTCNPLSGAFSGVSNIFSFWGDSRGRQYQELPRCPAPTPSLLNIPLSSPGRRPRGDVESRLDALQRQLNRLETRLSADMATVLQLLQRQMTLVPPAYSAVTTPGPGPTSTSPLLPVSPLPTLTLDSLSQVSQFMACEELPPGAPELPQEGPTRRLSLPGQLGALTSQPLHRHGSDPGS

Structure (SMILES) | hERG current change (%, negative = inhibition) at 10uM
O=C(Nc1ccc([N+](=O)[O-])cc1)N1CCN(C(=O)C2CCCO2)CC1 (stereo not drawn) | 0.636%
Cc1ccnn1CC(=O)N/N=C/c1ccc([N+](=O)[O-])s1 | -3.9%
COc1ccc(C2NCc3ccc4c(c3-n3cccc32)OCO4)cc1OC.Cl (stereo not drawn) | -19.7%
COc1ccc(OC)c(S(=O)(=O)n2ccnc2C)c1 | 0.0552%
CCc1c(-c2n[nH]c(=S)n2Cc2ccccc2)csc1C | -15%
CCOC(=O)C1=C(COC(=O)/C=C/c2ccco2)NC(=O)NC1C (stereo not drawn) | 2.93%
COc1ccc(C(=O)Oc2cccnc2)cc1OC | -26.6%
Cc1cc(OCC(=O)N2CCN(c3ccccn3)CC2)cc(C)c1Br | -32.3%
C[C@H]1CCC[C@]2(CC(=O)c3cc(F)ccc3O2)C1 | -11.9%
CCCCCCn1c(CN2CCCC(C)C2)nc2c1c(=O)n(C)c(=O)n2C (stereo not drawn) | -58.1%
CCN=C(NCC)SC1CC(=O)N(CCc2ccccc2)C1=O (stereo not drawn) | 18.2%
COc1cc2c(cc1OC)C(C)N(C(=O)c1ccc(Br)o1)CC2 (stereo not drawn) | -16.1%
O=C(CSc1nnnn1-c1cccc2ccccc12)Nc1ccc(N2CCOCC2)c(Cl)c1 | 2.68%
CC(C)=CCc1c(O)ccc(C2COc3c(CC=C(C)C)c(O)cc(O)c3C2=O)c1O (stereo not drawn) | 14.1%
Cc1c(Br)c(C(F)(F)F)nn1CC(=O)NCCCn1ccnc1 | -37.5%
CCOC(=O)C1=C(C)OC(N)=C(C#N)C1c1cc2cc(C)ccc2nc1N1CCCCC1 (stereo not drawn) | -0.228%
COc1cc(SC)ccc1C(=O)N1CC(C)OC(C)C1 (stereo not drawn) | 34%
Cc1ccc(C(=O)Nc2cccc(C(=O)NC3CCCCC3)c2)cc1 | 8.36%
COc1cc(C2SCC(=O)N2CCCN(C)C)cc(OC)c1OC.Cl (stereo not drawn) | 17.3%

Structure (SMILES) | hERG current change (%, negative = inhibition) at 10uM
CCCCNC(=O)CC1C(=O)N(Cc2ccccc2)C(C)c2nc3ccccc3n21 (stereo not drawn) | -10.6%
Fc1cccc(Cc2noc(CN3CCCN(C4Cc5ccccc5C4)CC3)n2)c1 | -86.5%
CC(C)Cn1c(-c2ccc(C#N)cc2)nc2c1c(=O)[nH]c(=O)n2CC(C)C | -28.3%
CN(c1ccccc1C(=O)NCC1CCCO1)S(C)(=O)=O (stereo not drawn) | 14.1%
CC(C)N=C(NS(=O)(=O)c1ccccc1)C(Cl)(Cl)Cl | -5.84%
CN1CCN(CC(=O)Nc2nnc(-c3cccs3)s2)CC1 | 0.0993%
COc1ccc(NC(=O)c2ccc(OC)cc2)cc1 | -30%
COC(=O)c1cccc(NC(=O)/C=C/c2ccc3c(c2)OCO3)c1 | -22.2%
N=c1c(C(=O)NCCN2CCOCC2)cc2c(=O)n3ccccc3nc2n1CCc1ccccc1 | -72.5%
O=C(CSCc1ccccc1)Nc1cccc(F)c1 | -4.88%
COc1ccc(OCC2CNC(=O)O2)cc1 (stereo not drawn) | -26.2%
COCCNc1ccc(-c2n[nH]c(=O)c3ccccc23)cc1[N+](=O)[O-] | 9.51%
CN1C(=C2C(=O)OC(C)(C)OC2=O)Sc2ccccc21 | 1.31%
CCOC(=O)C1(CCOc2ccccc2)CCN(CC(O)CO)CC1 (stereo not drawn) | -26.9%
Cl.c1ccc(CCCN2CCN(CCOC(c3ccccc3)c3ccccc3)CC2)cc1 | -71.8%
CC(OC(=O)/C(C#N)=C/c1ccc(N(C)C)cc1)C(=O)NCc1ccco1 (stereo not drawn) | 11.8%
CCOc1ccc(NC(=O)CN2C(=O)CCSc3ccc(S(=O)(=O)N4CCCC4)cc32)cc1 | -7.71%
Nc1n[nH]c(C(F)(F)F)c1-c1ccccc1 | 1.9%
C=CCn1c(C)c(C=C2C(=O)NC(=O)NC2=O)c2ccccc21 | 17.3%

Structure (SMILES) | hERG current change (%, negative = inhibition) at 10uM
Cc1cccc(C(=O)Nc2sc3c(c2C(=O)O)CCCC3)c1 | 38.1%
O=S(=O)(c1cccc(-c2cn3cccnc3n2)c1)N1CCOCC1 | -6.12%
COc1ccc(CCN(C)Cc2ccc(C(=O)Nc3ccccc3)cc2)cc1OC | -67.3%
Cc1ccc(C(=O)CSc2ccc(-c3ccncc3)nn2)cc1 | 6.33%
CCCn1cc(CN2CCC(N3CCC(C(=O)N4CCOCC4)CC3)CC2)c(C)n1 | 8.86%
CCN1CCN(c2nc3c(c(=O)[nH]2)CCC3)CC1 | 8.17%
CN(Cc1cnn(-c2ccc(F)cc2)c1)Cc1nc(Cc2ccccc2)no1 | -27.1%
Cc1ccccc1N1CCN(C2CCCN(C(=O)c3cc(C(C)C)[nH]n3)C2)CC1 (stereo not drawn) | -61.2%
COc1ccc(NC(=O)CO/N=C2/CCCc3nonc32)c(OC)c1 | 11.1%
CC(c1n[nH]c(=S)n1-c1ccccc1)N1CCCCC1 (stereo not drawn) | 35.4%
O=C(Nc1ccc(-c2nc3ccccc3[nH]2)cc1)C1CCCO1 (stereo not drawn) | -2.57%
COC(=O)C1=C(c2ccc(F)cc2OCc2ccccc2)C[C@@H]2CC[C@H]1N2C(=O)NCCOc1ccc(OC)cc1 | 7.46%
C=C1CC2C(=O)N(Cc3ccccc3)C(C(=O)OCC)(C(=O)OCC)C1N2C(=O)OC(C)(C)C (stereo not drawn) | -7.05%
COCCCNCCCOc1ccc(C(C)(C)c2ccccc2)cc1.O=C(O)C(=O)O | -19.9%
O=C(NCCCN1CCOCC1)c1ccc2c(c1)N(Cc1cccc(Cl)c1)C(=O)c1ccccc1S2=O (stereo not drawn) | -25.9%
CC(=O)OCC1OC(n2ccc3ccccc32)C(OC(C)=O)C(OC(C)=O)C1OC(C)=O (stereo not drawn) | 0.0107%
Cc1cc(C)c(N)c(C(=O)O)c1 | 7.17%
CC1CCCCC1NCC(=O)Nc1ccccc1-c1ccccc1.O=C(O)C(=O)O (stereo not drawn) | -13.4%
COc1ccc(/C=C(/NC(=O)c2ccccc2OC)C(=O)Nc2ccc(C(=O)O)cc2)cc1 | 7.22%
